Results as given in publication PMC4336329 (PLoS ONE, 2015).
The whole screen tested about 310,000 compounds, of which about 2,200 (0.71%) showed an effect of 50% or more. The effect is printed as a negative number. The list shows a part of the results.

These compounds were tested against human ether-à-go-go-related gene (hERG) potassium channel (human, UniProt Q12809) (assay: primary screen, population patch clamp on CHO cells stably expressing hERG).
Chain of human ether-à-go-go-related gene (hERG) potassium channel (Q12809 whole entry, looked up): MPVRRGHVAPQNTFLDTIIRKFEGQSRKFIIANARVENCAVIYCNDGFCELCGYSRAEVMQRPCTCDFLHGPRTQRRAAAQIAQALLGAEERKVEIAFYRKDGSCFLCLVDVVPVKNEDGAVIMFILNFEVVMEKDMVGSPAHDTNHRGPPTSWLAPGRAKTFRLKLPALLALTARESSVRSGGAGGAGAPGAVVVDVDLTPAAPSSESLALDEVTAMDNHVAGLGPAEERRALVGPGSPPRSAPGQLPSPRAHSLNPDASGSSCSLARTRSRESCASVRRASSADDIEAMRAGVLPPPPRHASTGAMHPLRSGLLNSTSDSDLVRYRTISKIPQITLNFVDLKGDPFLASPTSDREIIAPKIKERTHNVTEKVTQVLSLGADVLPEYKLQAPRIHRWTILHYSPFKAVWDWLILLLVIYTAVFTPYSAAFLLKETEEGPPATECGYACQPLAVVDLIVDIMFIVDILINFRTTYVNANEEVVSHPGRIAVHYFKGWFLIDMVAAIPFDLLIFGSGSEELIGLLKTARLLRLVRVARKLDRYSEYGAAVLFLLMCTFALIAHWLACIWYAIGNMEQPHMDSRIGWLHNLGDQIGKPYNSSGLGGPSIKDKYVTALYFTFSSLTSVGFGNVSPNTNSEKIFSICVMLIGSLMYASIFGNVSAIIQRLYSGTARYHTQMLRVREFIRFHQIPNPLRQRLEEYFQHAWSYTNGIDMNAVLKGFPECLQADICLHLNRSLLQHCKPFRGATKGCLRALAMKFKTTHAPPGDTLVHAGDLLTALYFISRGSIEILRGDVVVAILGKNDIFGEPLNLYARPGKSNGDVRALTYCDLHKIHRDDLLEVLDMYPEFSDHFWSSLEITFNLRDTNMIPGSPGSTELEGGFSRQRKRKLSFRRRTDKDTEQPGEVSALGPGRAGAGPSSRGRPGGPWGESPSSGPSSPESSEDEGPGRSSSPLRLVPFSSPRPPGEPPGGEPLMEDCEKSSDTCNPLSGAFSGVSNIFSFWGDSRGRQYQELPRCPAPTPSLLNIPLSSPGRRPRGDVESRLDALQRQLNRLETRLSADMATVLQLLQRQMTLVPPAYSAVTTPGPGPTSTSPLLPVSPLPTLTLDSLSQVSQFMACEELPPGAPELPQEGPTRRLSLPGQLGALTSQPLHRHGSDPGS
With `COc1cc(/C=N/N2CCN(Cc3ccc(C)cc3)CC2)cc(OC)c1O` the “hERG current change (%, negative = inhibition) at 1uM” value was 12.5%. For `CCOc1ccc(S(=O)(=O)n2nc(C)c(S(=O)(=O)N3CCOCC3)c2C)cc1`, the “hERG current change (%, negative = inhibition) at 1uM” value was 17.5%. In the case of `COc1ccc(-c2oc(NC(=O)CCl)c(C#N)c2-c2ccc(OC)cc2)cc1`, the “hERG current change (%, negative = inhibition) at 1uM” value is reported as 5.46%. In the case of `O=C(Nc1nnc(C2CC2)s1)c1n[nH]c(=O)c2ccccc12`, the “hERG current change (%, negative = inhibition) at 1uM” value is reported as 6.56%. In the case of `CCc1ccc(C(=O)NNC(=O)Cn2c(=O)cnc3ccccc32)cc1`, the “hERG current change (%, negative = inhibition) at 1uM” value is reported as 2.28%. `COc1ccc(CCNC(=O)C2CCCN(S(=O)(=O)N3CCCCCC3)C2)cc1OC` (stereo not shown) was tested, and the “hERG current change (%, negative = inhibition) at 1uM” value was 8.92%. In the case of `CCn1c(=O)c(C(=O)NNS(=O)(=O)c2ccc(NC(=O)OC)cc2)c(O)c2ccccc21`, the “hERG current change (%, negative = inhibition) at 1uM” value is reported as -24.2%. `COCc1ccc([C@@H]2C[C@H]3CN(Cc4ccccc4C)C(=O)[C@]34CCCN24)o1` was tested, and the “hERG current change (%, negative = inhibition) at 1uM” value was -1.73%. In the case of `CCN1CCN(c2ccc(S(=O)(=O)N(CC)CC)cc2[N+](=O)[O-])CC1`, the “hERG current change (%, negative = inhibition) at 1uM” value is reported as 1.33%. For `O=C(NCC1CCCO1)/C(=C\c1ccc(Cl)cc1)NC(=O)c1ccccc1` (stereo not shown), the “hERG current change (%, negative = inhibition) at 1uM” value was 6.43%. In the case of `Cc1cc(NS(=O)(=O)c2ccc3c(c2)OCCO3)no1`, the “hERG current change (%, negative = inhibition) at 1uM” value is reported as 11.7%. For `CC(C)Cc1nc2sc3c(c2c(=O)n1N)CC(C(C)C)OC3` (stereo not shown), the “hERG current change (%, negative = inhibition) at 1uM” value was 18.6%. `COc1ccc2nc(Cl)cc(Cl)c2c1` was tested, and the “hERG current change (%, negative = inhibition) at 1uM” value was 16.7%. In the case of `COc1ccc([N+](=O)[O-])cc1N(CC1CO1)S(=O)(=O)c1ccc(C)cc1` (stereo not shown), the “hERG current change (%, negative = inhibition) at 1uM” value is reported as 18.1%. For `Cc1nc(Cl)cc(N/N=C/c2ccc(O)cc2O)n1`, the “hERG current change (%, negative = inhibition) at 1uM” value was 3.56%. With `O=C(NCCCc1nc2ccccc2[nH]1)c1cccs1` the “hERG current change (%, negative = inhibition) at 1uM” value was 5.78%. `COc1ccc(NC(C)=O)cc1NC(=O)c1ccc2ccccc2c1` was tested, and the “hERG current change (%, negative = inhibition) at 1uM” value was -0.0088%. For `O=[N+]([O-])c1cc(S(=O)(=O)N2CCCC2)ccc1N/N=C/c1ccncc1`, the “hERG current change (%, negative = inhibition) at 1uM” value was 3.07%. `CCCn1c2ccccc2c2nnc(SCC(=O)Nc3cc(C)on3)nc21` was tested, and the “hERG current change (%, negative = inhibition) at 1uM” value was 1.24%. In the case of `Cc1c(C(=O)OCC(=O)N2CCCCC2C)oc2ccccc12` (stereo not shown), the “hERG current change (%, negative = inhibition) at 1uM” value is reported as 19.1%. `Cc1ccc(N2C(=O)CCC(C(=O)O)C2c2cccs2)cc1` (stereo not shown) was tested, and the “hERG current change (%, negative = inhibition) at 1uM” value was 22.5%. For `CCOC(=O)N1CCC(N2CCN(Cc3ccccc3)C(CCO)C2)CC1` (stereo not shown), the “hERG current change (%, negative = inhibition) at 1uM” value was 16.2%. With `CCS(=O)(=O)CCSc1nc(C)cc(C)n1` the “hERG current change (%, negative = inhibition) at 1uM” value was 10.4%. For `CN(C)CCNC(=O)COc1ccc(C23CC4CC(CC(C4)C2)C3)cc1.Cl`, the “hERG current change (%, negative = inhibition) at 1uM” value was 2.63%. In the case of `Cc1cc(C)n(CC(O)COc2ccccc2C)n1` (stereo not shown), the “hERG current change (%, negative = inhibition) at 1uM” value is reported as -6.57%. For `O=C1CSC(c2cccc(F)c2)N1c1ccccc1` (stereo not shown), the “hERG current change (%, negative = inhibition) at 1uM” value was 13.4%. In the case of `CCN(CC)C(=O)N1CCc2ccccc2C1CN1C(=O)c2ccccc2C1=O` (stereo not shown), the “hERG current change (%, negative = inhibition) at 1uM” value is reported as 5.4%. `Cc1ccc(-c2nc3cccnc3s2)cc1NS(=O)(=O)c1ccc2c(c1)CCCC2` was tested, and the “hERG current change (%, negative = inhibition) at 1uM” value was 0.773%. `COc1ccc(Br)cc1/C=C/C(=O)NC(=S)Nc1ccc(Cl)c(C(=O)O)c1` was tested, and the “hERG current change (%, negative = inhibition) at 1uM” value was 17.7%. In the case of `CCOC(=O)c1cc(=O)n2[nH]c(-c3ccc(C)cc3)cc2n1`, the “hERG current change (%, negative = inhibition) at 1uM” value is reported as 5.63%. In the case of `COc1ccccc1N1CCN(C(=O)c2cc3cc(F)ccc3[nH]2)CC1`, the “hERG current change (%, negative = inhibition) at 1uM” value is reported as 15.6%. In the case of `Cc1cc(C)n(CCc2nc(-c3ccc(C)o3)cs2)n1`, the “hERG current change (%, negative = inhibition) at 1uM” value is reported as -1.59%. `CSc1nc(C)c(CCOC(=O)c2cccc(Cl)c2)c(=O)[nH]1` was tested, and the “hERG current change (%, negative = inhibition) at 1uM” value was 5.59%. `COc1ccc(C(=O)Nc2ccc3c(c2)nc(CCNC(=O)c2ccco2)n3C)cc1` was tested, and the “hERG current change (%, negative = inhibition) at 1uM” value was 5.77%. For `CC#CC(=O)N1CCC(CCc2ccccc2)(C(=O)OCC)CC1`, the “hERG current change (%, negative = inhibition) at 1uM” value was -18.4%. For `Cc1ccc(S(=O)(=O)N(CC(=O)N2CCc3ccccc3C2)c2ccc(Cl)c(Cl)c2)cc1`, the “hERG current change (%, negative = inhibition) at 1uM” value was -1.2%. `COc1ccc(OC)c(-c2cc(C(=O)Nc3c(C)nn(Cc4ccccc4C)c3C)no2)c1` was tested, and the “hERG current change (%, negative = inhibition) at 1uM” value was 6.03%. With `CN(C)c1ccc(-c2noc(C3CCN(C(=O)Nc4ccc(Cl)cc4)CC3)n2)cc1` the “hERG current change (%, negative = inhibition) at 1uM” value was 11.4%. For `O=C(NCCCN1CCCC1=O)c1cc(=O)c2ccccc2o1`, the “hERG current change (%, negative = inhibition) at 1uM” value was 8.89%. With `O=C(COC(=O)C1CC2CCCC(C1)C2=O)Nc1ccc(Cl)cn1` (stereo not shown) the “hERG current change (%, negative = inhibition) at 1uM” value was 5.22%. `O=C(COC(=O)c1ccccc1C(=O)c1ccccc1)NCCc1ccc(Cl)cc1Cl` was tested, and the “hERG current change (%, negative = inhibition) at 1uM” value was 13.4%. With `COC(=O)CSc1nc2c(c(=O)n(C)c(=O)n2C)n1CCCc1ccccc1` the “hERG current change (%, negative = inhibition) at 1uM” value was -1.18%. For `CC(C)CCNC(=O)c1csc2c1CCCCC2`, the “hERG current change (%, negative = inhibition) at 1uM” value was 8.77%.
